# The whole screen tested about 310,000 compounds, of which about 14,000 (4.5%) showed an effect of 50% or more. The effect is printed as a negative number. The list shows a part of the results.
# Biological target: human ether-à-go-go-related gene (hERG) potassium channel (human, UniProt Q12809)
# Experiment: primary screen, population patch clamp on CHO cells stably expressing hERG
# 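Further: peak tail current of the secondary pulse compared with the same well before compound.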
# human ether-à-go-go-related gene (hERG) potassium channel, sequence (Q12809 whole entry, looked up): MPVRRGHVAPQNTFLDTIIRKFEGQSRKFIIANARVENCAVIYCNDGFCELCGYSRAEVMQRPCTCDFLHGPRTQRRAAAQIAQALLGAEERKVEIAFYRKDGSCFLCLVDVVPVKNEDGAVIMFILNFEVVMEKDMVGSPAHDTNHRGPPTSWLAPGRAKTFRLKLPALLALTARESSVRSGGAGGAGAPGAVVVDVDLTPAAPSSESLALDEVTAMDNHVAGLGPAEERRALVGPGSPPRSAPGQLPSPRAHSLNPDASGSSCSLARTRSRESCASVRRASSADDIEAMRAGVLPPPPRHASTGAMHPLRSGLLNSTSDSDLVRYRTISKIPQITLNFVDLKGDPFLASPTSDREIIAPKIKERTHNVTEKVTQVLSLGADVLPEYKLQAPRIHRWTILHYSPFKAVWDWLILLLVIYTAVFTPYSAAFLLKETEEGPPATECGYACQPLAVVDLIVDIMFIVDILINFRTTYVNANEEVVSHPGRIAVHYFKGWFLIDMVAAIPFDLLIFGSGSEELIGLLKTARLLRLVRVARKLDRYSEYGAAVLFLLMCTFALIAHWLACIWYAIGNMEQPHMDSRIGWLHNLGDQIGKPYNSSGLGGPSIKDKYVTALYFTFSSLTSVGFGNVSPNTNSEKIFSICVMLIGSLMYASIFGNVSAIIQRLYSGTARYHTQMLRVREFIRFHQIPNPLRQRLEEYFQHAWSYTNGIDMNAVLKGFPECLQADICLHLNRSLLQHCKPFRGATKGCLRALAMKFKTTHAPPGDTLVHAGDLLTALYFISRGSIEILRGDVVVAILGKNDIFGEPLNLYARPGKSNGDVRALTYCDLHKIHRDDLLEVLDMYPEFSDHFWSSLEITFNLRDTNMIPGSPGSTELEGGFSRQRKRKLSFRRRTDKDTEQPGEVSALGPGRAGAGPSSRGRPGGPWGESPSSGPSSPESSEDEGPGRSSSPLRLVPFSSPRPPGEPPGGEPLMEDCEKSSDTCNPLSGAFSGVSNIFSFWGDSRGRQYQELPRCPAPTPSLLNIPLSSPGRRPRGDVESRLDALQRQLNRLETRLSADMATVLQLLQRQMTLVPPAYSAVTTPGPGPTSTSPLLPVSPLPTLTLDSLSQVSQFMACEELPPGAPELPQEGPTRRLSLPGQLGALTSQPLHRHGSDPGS
row,Compound,"hERG current change (%, negative = inhibition) at 10uM [%]"
1,CCN(CC(=O)Nc1ccc(OC)cc1)C(=O)c1oc2c(Cl)cccc2c1C,13.5
2,COc1ccccc1NC(=O)CSc1nnnn1-c1ccc(C)cc1,-4.29
3,CCCCCN(C(=O)CCCSc1nncs1)c1c(N)n(CCCC)c(=O)[nH]c1=O,17.3
4,O=C(O)CCCC(=O)Nc1ccc(-n2ccc(C(F)(F)F)n2)cc1,13.9
5,N#C/C(N)=C(/N)C#N,19.6
6,OCC[C@@H]1C[C@H](O)[C@@H](O)[C@@]2(OCCc3ccccc32)O1,17.4
7,Cc1ccc(-c2nc3ncccc3o2)cc1NC(=O)c1cccs1,-6.5
8,COc1ccc(NC(=O)CC(NC(C)c2ccccc2)C(=O)O)cc1 (centres unmarked),13.1
9,N#Cc1ccc(-c2ccc(OCC(=O)Nc3cccnc3)cc2)cc1,-0.562
10,CCOC(=O)N1CCN(C(=O)CN(C)S(=O)(=O)c2ccc(F)cc2)CC1,16.8
11,COc1ccc(N(C)S(=O)(=O)c2cccc(C(=O)Nc3ccc4c(c3)OCCO4)c2)cc1,-12
12,Cc1ccc(S(=O)(=O)N2CCN(C(=O)CSc3nccn3C)CC2)cc1,17
13,O=C(CSCCO)Nc1cc(C(F)(F)F)ccc1Cl,-5.84
14,CCn1c(SCC(=O)Nc2nncs2)nnc1-c1ccco1,17.2
15,O=c1[nH]cn[nH]1,9.87
16,O=C(CCc1nc2ccccc2c(=O)[nH]1)OCc1nnc(-c2ccccc2)o1,-2.15
17,CCC(=O)N1c2ccccc2NC2=C(C(=O)CC(C)(C)C2)C1c1ccc(O)c(OC)c1 (centres unmarked),19.5
18,CSc1nc(NCC(C)C)c2c3c(sc2n1)CN(C)CC3,-44.2
19,Cc1ccc(NC(=O)CCN2CC(C)OC(C)C2)cc1C.Cl (centres unmarked),19.1
20,CSc1ccc(C=O)cc1,15.3
21,CNC(=O)c1[nH]cnc1C(=O)Nc1ccc(Cl)cc1,5.84
22,Cc1n[nH]c(=O)c2c(NC(=O)CSc3nncn3C(C)C)oc(C)c12,2.97
23,Cc1cc(-c2ccccc2)nc(N/N=C/c2ccccc2)n1,-32.4
24,CCOc1ccc(N(CC(=O)NCCSCc2ccccc2)S(=O)(=O)c2ccccc2)cc1,11.2
25,CC(=O)OCC(OC(C)=O)C(OC(C)=O)C(OC(C)=O)C(=O)Nc1ccc(C)cc1 (centres unmarked),-10.7
26,CCOc1cc(N2CCOCC2)c(OCC)cc1NC(=O)Cn1cnc2c(=O)n(C)c(=O)n(C)c21,-2.33

# Reference: PMC4336329 (PLoS ONE, 2015)
